Some of the results follow.
B1: chr5:136386232:136386233:-_ENSMUSG00000051391_ENSMUST00000055808|mus_mus|FALSE|FALSE (ssRNA)
RNA: GGGAGUUCUACAGUCCGACGAUCAAACUGAGAACCCAUGGCUUGGCGUCAUGUAUGGCUGUCAUGUAUAAAUACUGUAAACUACAAUUGAGUGUUAAUACUGUCAACCCGUCAGAGACUUCCAAAUACAGGGCCACGUCUAACCAACAGAGGAUUGAGCAUCA
B2: chr8:104447970:104447971:+_ENSG00000164934_ENST00000297579|hu_hu|hu_hu_hu_mus_False|8_108 (ssRNA)
RNA: GGGAGUUCUACAGUCCGACGAUCAUAUACCUCCCUGCUUCGGCUCUUGUCCACAGGAAAGAUUCUAAUAGACUUAUCAAAGCUGGCAGACACAAAUUCCUUCCCAGUGGGAGAGUAGUCCACAUCAAGCACUGCAGACACGUGCAACAGAGGAUUGAGCAUCA
B3: chr7:149068622:149068623:-_ENSMUSG00000025139_ENSMUST00000001950|mus_hu|mus_mus_mus_hu_False|1_78 (ssRNA)
RNA: GGGAGUUCUACAGUCCGACGAUCGUGAGGCCUCUGAGUGUGGCUUGUGGUCUGUCCUGUCUGCAGUUUGUUAAUAUCACGGAACAUACCAUCUAGAACGUUCCAGUCCCGCCUGACACCUUCAUUCCCAAUGGAGAAUCUGCUCAACAGAGGAUUGAGCAUCA
B4: 36723423_36724012_341_3pUTR_ENSMUSG00000022285_ENSMUST00000022894|mouse|control|control (ssRNA)
RNA: GGGAGUUCUACAGUCCGACGAUCUCAAACGCUUCUGGCUGCAGGAAGCGGCCUUAGACCUUUUAAGGCUGGGAAAAGCGCGAGGCUGAAUGACGCCCUGCCUUUCCAGUCGCGAGCUCGGCGUCCACACCGUGACAGCCGCGGCAACAGAGGAUUGAGCAUCA
B5: chr1:39494564:39494565:+_ENSG00000168653_ENST00000372967|hu_hu|hu_hu_hu_mus_True|8_88 (ssRNA)
RNA: GGGAGUUCUACAGUCCGACGAUCAUGCAUUCGCCUCAUCGUUUUGUGCCGAAGCAAGCACUCUUCGAAGUCAUCGAACUCUAUCUUGCACUCCUUUUUCGCCCGGGUCCCACCGAUCCCGUGUGCACAUUCUAUCCACUCUUUCAACAGAGGAUUGAGCAUCA
B6: 125857629_125857749_267_5pUTR_ENSMUSG00000033904_ENSMUST00000106557|mouse|control|control (ssRNA)
RNA: GGGAGUUCUACAGUCCGACGAUCGAUCUCGUUUAUUUCCUGGGGUUUUGUGUAUCUUCUUCCACCAAAACGUAAACUCCAUAAGAACAGGUACCUUCUCAGUCUUGCUCACUGGUUCGCCAUGACACACAAUGGUGUCAGCACCAACAGAGGAUUGAGCAUCA
B7: chr11:86546118:86546119:-_ENSMUSG00000047126_ENSMUST00000103186|perfect_dup|motif|central (ssRNA)
RNA: GGGAGUUCUACAGUCCGACGAUCUGCAAAACAAAAUAACGUUGAUUCUUCUGCAUUUCCUUCCAUCUUAAACUGUGCAAAGCGGGCUGCAUGUCCUUCAAUGGGCUGAGACACUUUCCUAUCUACAGAAUAUAGCUGCAUAGCCAACAGAGGAUUGAGCAUCA
B8: chr11:106646565:106646566:-_ENSMUSG00000020719_ENSMUST00000021062|mus_hu|FALSE|FALSE (ssRNA)
RNA: GGGAGUUCUACAGUCCGACGAUCUCUGCUUCAUCAAGGACAAGGUAGGUUGUUCUUCUCAGAUUGGUUUUUCCACACUCUAAAAAGUCAAUCAGUCUUCCAGGUGUUGCAAUACAGAUUUCCACACCUCUCUCCAAAUCACGUCAACAGAGGAUUGAGCAUCA
B9: 100201843_100201963_4378_CDS_ENSMUSG00000052727_ENSMUST00000064762|mouse|control|control (ssRNA)
RNA: GGGAGUUCUACAGUCCGACGAUCAGAAACUGGGCUUUCUCUGUCUGGGAAGCCCUGCUUUCCAUUCUUCCCUUCAAAGGGGCUUUCGGAACGUCUGCCAAGAACCUUGCUAUCAGCACUCAGGAAGUCUUCAUAUGGGGACUCCAACAGAGGAUUGAGCAUCA
B10: chr14:54894545:54894546:-_ENSG00000100528_ENST00000216416|hu_hu|motif|central (ssRNA)
RNA: GGGAGUUCUACAGUCCGACGAUCCAUUUGGUGGCUUUUUGCAUGCACUUAACUGGACCAAUUCUUCUGUGUGUUGUUCGGAGAGCUCACCAAAACAUAGAUCAUGCCAUAUAGGUAGUAAAAAAAUGCUAGAAGAUAAAAAGCCAACAGAGGAUUGAGCAUCA
B11: chr7:65705475:65705476:+_ENSG00000169902_ENST00000304842|hu_hu|hu_hu_hu_mus_True|68_68 (ssRNA)
RNA: GGGAGUUCUACAGUCCGACGAUCUCUAUUCGGUGAUGGCACUCCAUGGCAUGCUGGCCCAGGUAAAACACAGUCACAGAACUAAUCACCAGACACGCCAAGAGUAAGUUCUGCUUCAGCUUCCCAACCAUCUUGAUGUGGUUACAACAGAGGAUUGAGCAUCA
B12: chr1:46159212:46159213:+_ENSG00000159596_ENST00000372025|hu_mus|hu_hu_hu_mus_True|48_48 (ssRNA)
RNA: GGGAGUUCUACAGUCCGACGAUCUCUGAUCCCUCCCAAGAAAGCUAGGAAACCGGCUCCAUAAGCCAUCUGAGUGAAAGCUAGGACGGGAAUAUAAGACUUUGUUAUUACCAUGAGAAGUGGGGGAGCAGUAAAGGGGAUUAACAACAGAGGAUUGAGCAUCA
B13: chr18:56819859:56819860:+_ENSG00000166562_ENST00000588875|hu_mus|hu_hu_hu_mus_True|68_78 (ssRNA)
RNA: GGGAGUUCUACAGUCCGACGAUCAACCUUGAUUACUCUGUGAACUAUCGGAAUGUCUCGUCCUUCAACUUUAAAAACAACUAUUUCACCAGCUCUGAUGGGGUCCUCCCGGAAAUUCGUGAGGAACAGCAGAUCUCCUCUGUGCAACAGAGGAUUGAGCAUCA
B14: chr5:138654669:138654670:+_ENSG00000015479_ENST00000502499|hu_hu|FALSE|FALSE (ssRNA)
RNA: GGGAGUUCUACAGUCCGACGAUCUUUCUUUAUUCUUUUAUACUUCUGGGAUAAAUGAACUCUCACUGGCUUGCCAAAUACUAACGCUGGUGUGGUUGUGUAAUAAUCCACUGCGGCCUGAGCAUCCUCUGUGGUUGCCAUUUCCAACAGAGGAUUGAGCAUCA
B15: chr1:21268426:21268427:-_ENSG00000075151_ENST00000400422|hu_mus|FALSE|FALSE (ssRNA)
RNA: GGGAGUUCUACAGUCCGACGAUCGUUCUCCUUGGCUGAUAAUUUUUCUCCAACUCCAUUCAUUUCAUUAAUUAGGAUAGUACUAGAAAUUAGCUGACUAUCAUGAGGCGCUACGCUACAGGGUUUCUUGCAUAUAUCACUGUUCAACAGAGGAUUGAGCAUCA
B16: 112303208_112303445_1358_CDS_ENSG00000064703_ENST00000369702|human|control|control (ssRNA)
RNA: GGGAGUUCUACAGUCCGACGAUCCAGUCUUACAAAAGUGGGAUCUCUCAUGUACUUUGUCAAAGCAUUAGCCAAAAAUUCGGGAUAAGUAGCUGAUACUGCCAGCAUCUGUUUACUGGCAGGCAAGGAAGAAUAAAUCCAAUUCAACAGAGGAUUGAGCAUCA
B17: chr2:5814250:5814251:-_ENSMUSG00000025816_ENSMUST00000102981|mus_hu|mus_mus_mus_hu_True|18_108 (ssRNA)
RNA: GGGAGUUCUACAGUCCGACGAUCUUCCUUUCAGGCUUCUGAAUUUCUGGUAGAACUGCACAGAAUGGUUUGAUAACUUCUAAAAAUUUGAUGCCCAUGGCUGCUGCUGGGGAGGCCCGGCGGGCACCCGCGGCCUCGGCGCUGCAACAGAGGAUUGAGCAUCA
B18: chr2:62099399:62099400:-_ENSG00000115484_ENST00000544079|hu_hu|FALSE|FALSE (ssRNA)
RNA: GGGAGUUCUACAGUCCGACGAUCGUAGGAUUCCAUACCACUCAGUGUUCGUGAAUAUUCAGUUAAUCGUAGGGCCAACUCUAUUUCUGGAGCACCACCUCCUGCAAUAAGAGCCCUCUUCUUCACUAAACAACGAAUAACACACAACAGAGGAUUGAGCAUCA
B19: chr15:80430306:80430307:+_ENSG00000086666_ENST00000558494|hu_hu|FALSE|FALSE (ssRNA)
RNA: GGGAGUUCUACAGUCCGACGAUCAUUAUCAAAAGAGAAAUCGUGCUGCAGAGAAAAGCGAUAUAUACAUACACAAUGAGAAAAUAAACUGCAAGAUUAAUGCAUGCAUGUUUAAUACUGGAAAAAUCACAGCCCUCCAAAAUUCAACAGAGGAUUGAGCAUCA
B20: chr2:128501614:128501615:-_ENSMUSG00000014355_ENSMUST00000014499|mus_mus|motif|central (ssRNA)
RNA: GGGAGUUCUACAGUCCGACGAUCAGCCACAGGGGAUUCGCCUUUGGAGAGGCUUCUGAGAUGUGCUGUCAGGGAGCUGCGGGUAGUUGCAUUCUGCAGGGUCCCUGCCUGCUCAGGGAACUUUAAAACAGCAUUCUCUUCCUCCAACAGAGGAUUGAGCAUCA
B21: chr16:94664741:94664742:+_ENSMUSG00000040785_ENSMUST00000117648|mus_hu|mus_mus_mus_hu_False|38_38 (ssRNA)
RNA: GGGAGUUCUACAGUCCGACGAUCUGGUACUGAUCUUGGUAGCUGAUAUUCAGGAGAAAGGCUGGCCAAGGGUGUAUAUAUGCUGGUGUACUGGGGCAGGCUAGGUAACACGUUUAUGUAUGCUGGCGGUGUCUGGGUGAUAUCCAACAGAGGAUUGAGCAUCA
B22: 53105790_53113655_364_3pUTR_ENSMUSG00000020361_ENSMUST00000020630|mouse|control|control (ssRNA)
RNA: GGGAGUUCUACAGUCCGACGAUCUCUUAGGACCAAAAGAAACACAUGCCGGCGUGCAGCGGUCGCUAUACUCGUUAGCGAUCGUCUCGAUGCCGCCGGCGCGGGCCACAGCGACAUAGCAGCUCUGAAAGCCCAGGUCUAUGCCAACAGAGGAUUGAGCAUCA

The binders below were run against T1, UNK ZnF1-3 (human, UniProt Q9C0B0 31-174) (assay: nsRBNS (natural sequence RNA bind-n-seq); RBNS binding buffer (assumed for nsRBNS): 25 mM Tris pH 7.5, 150 mM KCl, 3 mM MgCl2, 0.01% Triton X-100, 500 ug/ml BSA, 20 U/ml SUPERase-In, 4 C; UNK is unkempt and MSI1 is Musashi-1; names of the RNAs are library labels; protein concentration not given here; high values mean tight binding).
T1 sequence: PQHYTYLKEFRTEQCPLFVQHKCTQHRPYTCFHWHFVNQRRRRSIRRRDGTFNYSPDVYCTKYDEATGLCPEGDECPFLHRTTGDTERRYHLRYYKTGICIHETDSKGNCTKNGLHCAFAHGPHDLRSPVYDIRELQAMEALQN

Binder	binding signal [enrichment R]
B1	1.33
B2	1.04
B3	0.795
B4	0.524
B5	0.594
B6	0.374
B7	1.29
B8	0.763
B9	0.648
B10	1.79
B11	0.622
B12	1.75
B13	0.73
B14	0.779
B15	1.15
B16	1.17
B17	0.975
B18	1.13
B19	1.04
B20	1.41
B21	1.2
B22	0.496
